From PubChem BioAssay AID485344 (National Center for Advancing Translational Sciences (NCATS), 2010)
Out of some 340,000 compounds screened, about 6,900 (2%) were called active. Rule as the data show it: active = inhibition above about 30%; inactive = below that, where a call was filed. This is a selection; strong and weak results do not stand in their true shares. Entries without a call were filed so in the source.

Molecular target: D(2) dopamine receptor (Homo sapiens) (UniProt P14416)
Assay: HTS Assay for Allosteric Antagonists of the Human D2 Dopamine Receptor: Primary Screen for Antagonists; also: 0% is about no effect
Conditions: HEK293 TREx D2 cells, calcium flux, dopamine EC80; at 10 µM; stronger effect = higher value
Method in brief: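 Antagonism is scored as inhibition of an EC80 dopamine-evoked calcium signal in a force-coupled, tetracycline-inducible HEK293 T-REx D2 line, with compound present 180 s before agonist.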

Sequence of UniProt P14416 (P14416 whole entry, looked up): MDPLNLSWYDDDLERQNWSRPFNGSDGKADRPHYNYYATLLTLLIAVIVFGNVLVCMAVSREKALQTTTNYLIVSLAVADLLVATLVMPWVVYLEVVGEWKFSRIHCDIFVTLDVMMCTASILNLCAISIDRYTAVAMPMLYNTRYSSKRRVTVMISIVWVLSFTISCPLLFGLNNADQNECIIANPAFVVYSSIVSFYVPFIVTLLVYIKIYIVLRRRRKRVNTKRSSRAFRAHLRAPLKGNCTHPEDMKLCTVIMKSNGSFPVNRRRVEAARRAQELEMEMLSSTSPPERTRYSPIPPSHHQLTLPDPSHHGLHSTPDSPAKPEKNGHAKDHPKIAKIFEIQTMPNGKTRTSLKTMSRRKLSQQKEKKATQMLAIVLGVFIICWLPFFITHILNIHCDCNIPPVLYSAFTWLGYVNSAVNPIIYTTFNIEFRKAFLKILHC

Compound	inhibition
COc1cccc(N2CCN(C(=O)CCc3c(C)nc4c(c3C)c(=O)n(C)c(=O)n4C)CC2)c1	9.28%
Cc1ccccc1-n1c(SCc2ccc(Cl)cc2)nc2[nH]ncc2c1=O	8.1%
CCC(C)NC(=O)c1ccc2c(c1)N(Cc1ccccc1)C(=O)c1ccccc1S2 (stereo not drawn)	-12.5%
CC(=O)Nc1ccc(S(=O)(=O)N2CCC(n3c(C(F)(F)F)nc4cccnc43)CC2)cc1	-2.66%
Cc1ccc(CCNC(=O)CCCn2nc(C)c3c(C)n(-c4ccccc4)nc3c2=O)cc1	-10.9%
CCOc1cccc2sc(N(CCN(C)C)C(=O)/C=C/c3cccs3)nc12	active: 65.9%
COc1ccc(CNC(=O)CSc2nc(-c3ccc(OC)cc3)cc(C(F)(F)F)n2)cc1	-10.7%
CCN1CCN(c2cc(N3CCc4ccccc4C3)c(F)cc2[N+](=O)[O-])CC1	active: 61.6%
O=C(CCC(=O)c1cccs1)NCc1ccccc1	active: 34.9%
CC(C)Oc1ccc(CNC(=O)c2cc3ccccn3n2)cc1	6.49%
Cc1ccccc1C(=O)c1cccn1CC(=O)NCc1ccccc1	-8.93%
CCOc1ccc(CCNC(=O)Cn2nc(C)n3c(cc4occc43)c2=O)cc1OCC	3.32%
c1ccc(N2CCN(C3CC4CCC3C4)CC2)cc1 (stereo not drawn)	active: 86.6%
Cc1ccc(C)c(OCCn2c(-c3ccc(Cl)cc3)nc3ccccc3c2=O)c1C	-2.45%
Cc1ccc(-c2nc3c4ccccc4n(CC(=O)N4CCN(c5ccccc5F)CC4)c(=O)n3n2)cc1	11.2%
Cc1ccccc1CNC(=O)c1cnc2sc(N3CCOCC3)nn2c1=O	0.7%
Cc1ccc(-n2nnnc2CNC(=O)C(C)(C)C)cc1C	-5.06%
COc1ccc2ccccc2c1/C=N/NC(=O)c1nnn(-c2nonc2N)c1C(C)C	active: 34.7%
Cc1cccc(Cn2c(C(C)(C)C)cc3cccnc32)c1	active: 44.8%
COc1ccc(CNC(=O)c2cc(-c3ccc(OC)cc3)on2)cc1	9.36%
Cc1nc(SC(C)C(=O)Nc2ccccc2C)cc(-c2ccccc2)n1 (stereo not drawn)	5.96%
CC1Sc2ccc(S(=O)(=O)CCC(=O)Nc3ccc(C(C)C)cc3)cc2NC1=O (stereo not drawn)	active: 52.1%
COCCn1nnnc1SCC(=O)N1CCCCC1	active: 34.2%
CCN(CC)c1cc(C)c2cc(NC(=O)c3cccc(OC)c3)ccc2n1	-4.85%
Cc1cccc2nc(-c3ccco3)c(Nc3ccc4c(c3)OCO4)n12	-7.66%
Cc1cccc(OC(C)C(=O)Nc2ncn[nH]2)c1 (stereo not drawn)	-6.26%
CCc1ccc(NC(=O)c2ccc3c(O)c(S(=O)(=O)c4ccc(Cl)cc4)c(=O)[nH]c3c2)cc1	1.52%
CCCCN(CC)CCCNC(=O)c1sc2nc(C)cc(C)c2c1-n1cccc1	6.36%
